Experimental data from the supplement of paper PMC12217912.
The other results are listed elsewhere or left out. Sequences were assembled here from the parent chain. Inactive controls read about 0.05.

B1: TEV protease; numbered along this chain (parent)
chain: MGESLFKGPRDYNPISSSICHLTNESDGHTTSLYGIGFGPFIITNKHLFRRNNGTLVVQSLHGVFKVKDTTTLQQHLVDGRDMIIIRMPKDFPPFPQKLKFREPQREERICLVTTNFQTKSMSSMVSDTSCTFPSGDGIFWKHWIQTKDGQCGSPLVSTRDGFIVGIHSASNFTNTNNYFTSVPKNFMELLTNQEAQQWVSGWRLNADSVLWGGHKVFMVKPEEPFQPVKEATQL

Variants of: B1
Assay: raw area under fraction-flipped curve 0-4 h after induction (AUC4h, not background-subtracted), DNA-recorder readout of cleavage of the substrate (dimensionless); higher = more cleavage of the substrate by the protease variant
Conditions: temperature: 34 °C; time window: 0-4 h after rhamnose induction
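Note: Bxb1 expression induced with 0.2% (w/v) L-rhamnose at OD600 near 0.5, cultures sampled hourly, flipped fraction per protease–substrate barcode pair counted by paired-end Illumina sequencing.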

S130H
area with substrate ECLYFQS: 0.0842 | area with substrate EELYFQS: 0.121 | area with substrate EILYFQS: 0.0891 | area with substrate EKLYFQS: 0.102 | area with substrate ELLYFQS: 0.0546 | area with substrate EPLYFQS: 0.107 | area with substrate EQLYFQS: 0.0665 | area with substrate ERLYFQS: 0.0884 | area with substrate ESLYFQS: 0.109 | area with substrate ETLYFQS: 0.0894 | area with substrate EVLYFQS: 0.129 | area with substrate EYLYFQS: 0.126

G162W
area with substrate ECLYFQS: 0.121 | area with substrate EDLYFQS: 0.128 | area with substrate EGLYFQS: 0.0873 | area with substrate EILYFQS: 0.0536 | area with substrate EKLYFQS: 0.111 | area with substrate EMLYFQS: 0.0843 | area with substrate EPLYFQS: 0.102 | area with substrate EQLYFQS: 0.0977 | area with substrate ERLYFQS: 0.0712 | area with substrate ESLYFQS: 0.0893 | area with substrate ETLYFQS: 0.0762 | area with substrate EVLYFQS: 0.0723 | area with substrate EWLYFQS: 0.0616 | area with substrate EYLYFQS: 0.11

G162K
area with substrate ECLYFQS: 0.103 | area with substrate EDLYFQS: 0.0787 | area with substrate EELYFQS: 0.128 | area with substrate EGLYFQS: 0.126 | area with substrate EHLYFQS: 0.101 | area with substrate EPLYFQS: 0.109 | area with substrate EQLYFQS: 0.102 | area with substrate EVLYFQS: 0.0859

G162I
area with substrate ECLYFQS: 0.0742 | area with substrate EFLYFQS: 0.07 | area with substrate EGLYFQS: 0.0633 | area with substrate EKLYFQS: 0.077 | area with substrate EMLYFQS: 0.0664 | area with substrate EQLYFQS: 0.0751 | area with substrate ESLYFQS: 0.0727 | area with substrate EVLYFQS: 0.0802

N177D
area with substrate ECLYFQS: 0.0874 | area with substrate EDLYFQS: 0.0972 | area with substrate EELYFQS: 0.0903 | area with substrate EGLYFQS: 0.116 | area with substrate EILYFQS: 0.0742 | area with substrate EKLYFQS: 0.0988 | area with substrate ELLYFQS: 0.0758 | area with substrate EMLYFQS: 0.0819 | area with substrate EQLYFQS: 0.0783 | area with substrate ESLYFQS: 0.0736 | area with substrate ETLYFQS: 0.0914 | area with substrate EVLYFQS: 0.0955 | area with substrate EYLYFQS: 0.0822

M125A
area with substrate ECLYFQS: 0.107 | area with substrate EDLYFQS: 0.142 | area with substrate EELYFQS: 0.147 | area with substrate EGLYFQS: 0.117 | area with substrate EPLYFQS: 0.105 | area with substrate ERLYFQS: 0.0994 | area with substrate ESLYFQS: 0.094 | area with substrate EVLYFQS: 0.132 | area with substrate EWLYFQS: 0.11 | area with substrate EYLYFQS: 0.141

M125H
area with substrate ECLYFQS: 0.111 | area with substrate EDLYFQS: 0.152 | area with substrate EELYFQS: 0.136 | area with substrate EGLYFQS: 0.132 | area with substrate EHLYFQS: 0.121 | area with substrate EILYFQS: 0.067 | area with substrate EPLYFQS: 0.0508 | area with substrate EQLYFQS: 0.0782 | area with substrate ERLYFQS: 0.12 | area with substrate ESLYFQS: 0.121 | area with substrate EVLYFQS: 0.0966

M125I
area with substrate ECLYFQS: 0.127 | area with substrate EDLYFQS: 0.113 | area with substrate ESLYFQS: 0.134 | area with substrate EYLYFQS: 0.106

M125Q
area with substrate ECLYFQS: 0.0966 | area with substrate EDLYFQS: 0.137 | area with substrate EELYFQS: 0.0867 | area with substrate EFLYFQS: 0.104 | area with substrate EILYFQS: 0.106 | area with substrate EKLYFQS: 0.109 | area with substrate ELLYFQS: 0.0535 | area with substrate EMLYFQS: 0.105 | area with substrate EPLYFQS: 0.105 | area with substrate EQLYFQS: 0.111 | area with substrate ESLYFQS: 0.123 | area with substrate ETLYFQS: 0.116 | area with substrate EVLYFQS: 0.104

P134V
area with substrate ECLYFQS: 0.121 | area with substrate EDLYFQS: 0.101 | area with substrate EELYFQS: 0.107 | area with substrate EFLYFQS: 0.0913 | area with substrate EGLYFQS: 0.0728 | area with substrate EHLYFQS: 0.0626 | area with substrate EILYFQS: 0.0649 | area with substrate ELLYFQS: 0.0856 | area with substrate EMLYFQS: 0.107 | area with substrate EPLYFQS: 0.091 | area with substrate EQLYFQS: 0.0925 | area with substrate ERLYFQS: 0.0436 | area with substrate ESLYFQS: 0.0651 | area with substrate EWLYFQS: 0.0818

I167C
area with substrate ECLYFQS: 0.0837 | area with substrate EDLYFQS: 0.135 | area with substrate EELYFQS: 0.098 | area with substrate EGLYFQS: 0.0647 | area with substrate EILYFQS: 0.0808 | area with substrate EKLYFQS: 0.0744 | area with substrate ELLYFQS: 0.0799 | area with substrate EMLYFQS: 0.0954 | area with substrate EPLYFQS: 0.101 | area with substrate ESLYFQS: 0.0874 | area with substrate ETLYFQS: 0.0779 | area with substrate EWLYFQS: 0.0766 | area with substrate EYLYFQS: 0.0897

M188A
area with substrate ECLYFQS: 0.0989 | area with substrate EELYFQS: 0.128 | area with substrate EGLYFQS: 0.079 | area with substrate EILYFQS: 0.0936 | area with substrate EKLYFQS: 0.0936 | area with substrate EMLYFQS: 0.0937 | area with substrate EPLYFQS: 0.0985 | area with substrate ERLYFQS: 0.12 | area with substrate ESLYFQS: 0.108 | area with substrate ETLYFQS: 0.141 | area with substrate EVLYFQS: 0.0837

K148V
area with substrate ECLYFQS: 0.0747 | area with substrate EDLYFQS: 0.112 | area with substrate EELYFQS: 0.107 | area with substrate EGLYFQS: 0.117 | area with substrate EHLYFQS: 0.105 | area with substrate EILYFQS: 0.0914 | area with substrate EKLYFQS: 0.195 | area with substrate EMLYFQS: 0.128 | area with substrate EPLYFQS: 0.0668 | area with substrate EQLYFQS: 0.134 | area with substrate ERLYFQS: 0.105 | area with substrate ESLYFQS: 0.107 | area with substrate EVLYFQS: 0.108 | area with substrate EYLYFQS: 0.0934

F180M
area with substrate ECLYFQS: 0.0847 | area with substrate EDLYFQS: 0.123 | area with substrate EGLYFQS: 0.13 | area with substrate EILYFQS: 0.0958 | area with substrate EKLYFQS: 0.11 | area with substrate ELLYFQS: 0.0964 | area with substrate EPLYFQS: 0.132 | area with substrate EQLYFQS: 0.121 | area with substrate ERLYFQS: 0.101 | area with substrate EWLYFQS: 0.0889

F180K
area with substrate ECLYFQS: 0.0595 | area with substrate EDLYFQS: 0.0661 | area with substrate EELYFQS: 0.0576 | area with substrate EGLYFQS: 0.0229 | area with substrate EHLYFQS: 0.0622 | area with substrate EILYFQS: 0.0538 | area with substrate EKLYFQS: 0.057 | area with substrate EPLYFQS: 0.0507 | area with substrate EQLYFQS: 0.0516 | area with substrate ERLYFQS: 0.0629 | area with substrate EWLYFQS: 0.107 | area with substrate EYLYFQS: 0.129
